# This is one part of the list.
# Test system: PF3D7_0420300 AP2 domain 1 (GST-tagged)
# Experiment: gcPBM binding intensity (ln(normalized median fluorescence intensity)); higher = stronger DNA binding
# Summary of the method: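 Plasmodium falciparum DNA-binding domains carrying a GST tag were expressed in E. coli and applied for 1 h, at about 25 μg on average, to an Agilent 4 × 180k array. The array held primer-extended double-stranded 36-bp intergenic genomic probes together with negative controls, and binding took place in 1× PBS with 1% milk, 0.2 mg/ml BSA, 0.5% salmon testes DNA and 0.03% Triton X-100. An Alexa488 anti-GST antibody detected bound protein, and the array was scanned at 488 nm. Binding intensity is taken as the highest Masliner-normalised natural-log median intensity across replicate spots of either probe orientation.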
row,Sequence,gcPBM binding intensity (ln)
1,ATATGTCACTTGTATACACACATATAGATTTCAATC [CACACA_site7519],9.52
2,TTTCTAATTCTTAGTGGTACACAGTTCTGCTGATAT [XGTACX_site2391],8.88
3,TATTTGTTGTGAGTCACACATATATATATATATATA [CACACA_site4240],9.32
4,ATATATGTATATTTTTGTACGCATAAATATATTTTT [XGTACX_site827],9.19
5,TTTTTATACAATTAGACACACACAAAAAGTATATAT [CACACA_site8272],9.64
6,TGCTTAATTTACGTGGGTACATACACCTCATATATT [XGTACX_site3093],9.46
7,TTAATACATATATATATATTATATATATATATATAT [TGCATGCA_negctrl_site177],8.93
8,TATTTTTCCATAAAAATTTATATAGAAACAAATAAT [GTGCAC_negctrl_site103],8.97
9,ATTATTTTAATTTTAATTTTTTTTTTTTTTTGTTTT [CACACA_negctrl_site1063],9.18
10,CCCTTTTATTAAAATTCACACACATAAATTTTTATA [CACACA_site8611],9.42
11,TACTATAAGATATATACACACAAGAAATACAAAACG [CACACA_site6764],10.1
12,ATGATTATTTTAAAAAGTACTAATTATTATTTTTTT [XGTACX_site7242],9.07
13,ATACACATTCGAAATAACAAAAAAATACATACACAT [GTGCAC_negctrl_site628],9.7
14,GAATATGAATATTTGCGTACTTATATAACTGTTCTA [XGTACX_site883],9.36
15,AAAAAAAATAATAATACACACAATATGATATGTACA [CACACA_site850],9.72
16,TTTTTATATTTTTGCACACATTCTTTACTCTTCAAA [CACACA_site2210],9.71
17,TATATATATGGACACACACACATATAAATAAATAAA [CACACA_site4406],10
18,TTAAAAAAAAAACACACACACATACACATATATATA [CACACA_site3299],10.1
19,TTTTTTTTTTTTTTTTTTTCTATTTTACTGTTTCGT [CACACA_negctrl_site850],8.29

row,Sequence,gcPBM binding intensity (ln)
1,ATAATTAATAAATAATGTACATATATATTATATTTT [XGTACX_site8546],9.19
2,TGTGAAGTACCGAATGTGCACTGTGTGTGTTCTTTT [GTGCAC_site9613],9.74
3,TTACCGTAAAAATTTTGTACATAAAATAATATATAA [XGTACX_site532],9.14
4,CACATACATATATATACACACAAATATATATACACA [CACACA_site8164],9.76
5,GTATGTGTGTCAAGTCGTACTTACCTTTAAATTTTT [XGTACX_site2507],9.7
6,GATATAAAATATTGGTGTACTTTTTTTTTTTTTTTT [XGTACX_site7174],9.23
7,ACCATGAAAATATTATGTACATATGTATTATATATA [XGTACX_site408],9.21
8,GAGTGAGCTAATAAAAGTACGTAATAAACAAACGCA [XGTACX_site131],9.47
9,ATAGCTGTATTTAATACACACAAAACTTTCATTCCA [CACACA_site5868],9.42
10,TTTTTTTGTTTTGTTTTTTTTTTTTTTTTTTTTTTG [CACACA_negctrl_site570],9.23
11,AAAAATATATAAAGAAAAAGAATATAATATAAAATA [GTGCAC_negctrl_site208],9.46
12,ATTGTAGAATTTAATAGTACTCACGAATAAAATAAA [XGTACX_site6280],9.15
13,GTTTATGTTAAACCATGTACTTAATATTTTATTCTT [XGTACX_site3761],9.4
14,AAAAAAAAAGTATTATGTACATAAAAATAAAAAAAT [XGTACX_site4166],9.42
15,TATTAAAATATGTCAGTTCTTAAAAAGTTGATGAGT [GTGCAC_negctrl_site77],9.08
16,TATGATTCATAATAGTGTACGTAAAAATTGACTAGA [XGTACX_site5376],9.23
17,ATTCAAAATAATAGAATTGTTAAAGTTGTAAATTGA [CACACA_negctrl_site727],8.97
18,TATAATATGAACAGTACACACAAAATAAATTCGTAT [CACACA_site3586],9.86
19,CTCAAACAATATTATATAATAAAGTACATATATATT [CACACA_negctrl_site446],9.18

row,Sequence,gcPBM binding intensity (ln)
1,TATATTTTTATATTTTGTACATATAGTAAATATAAA [XGTACX_site4768],8.98
2,AAAAATAAATATACATGTACTTAAAATAATCGAATA [XGTACX_site8432],9.41
3,ACGTATCAAAAAATTTGTACATATATATATATATAT [XGTACX_site1024],9.28
4,GAACAGAAAAAGAATAGTACATATATATATATATAT [XGTACX_site3700],9.26
5,ATGATAGTATGTATGAGTACGAAAAAAAAAAATTAA [XGTACX_site32],9.25
6,AAATGCAAATGATGATGTACATACAAAAATTAAATT [XGTACX_site5323],9.42
7,ATATATATATATATTGTACACACATTTATGCATATA [CACACA_site9055],9.69
8,TGTGGGAATAACCACACACACACACCCATATATATA [CACACA_site5876],10.1
9,ATATATATATATATATGTACATATCACTTTAAATAT [XGTACX_site3859],9.14
10,TTTTCTTAAAAAATCAAACACACATATATATATACA [CACACA_site2297],9.28
11,TATCGTTATATAATATGTACATATAAAATTTAAATT [XGTACX_site1887],9.1
12,AAAATGTATATATAAACATGCACACGTGGTTGTATA [TGCATGCA_site847],9.56
13,TATATATTATGACCACCACACACCTATACGCATAAC [CACACA_site2447],9.53
14,TCTTAAATTTCTTTATGTACATAATTAATATATTTA [XGTACX_site4456],9.11
15,TTGAAATTAAATGACATACACACTATATTATATATT [CACACA_site3135],9.32
16,AAAAATAAAGTAAAAGCATGCTAGTATATGGAAAAT [TGCATGCA_site486],9.5
17,CATATACGCAAACACACACACATATATATATATATA [CACACA_site501],10
18,AGGTATATATATTTATGTACTTAAAATGAGAAAATA [XGTACX_site8337],9.21
